# Measurements from the supplement of paper PMC4466236.
# The full ranking holds about 33,000 sequences; the median of “E-score (dimensionless, -0.5 to 0.5)” is about -0.058, and the highest 2% start at about 0.35. Some of the results follow.
# System: MvaT
# Experiment: PBM 8-mer E-score (mean of HK and ME arrays) (E-score (dimensionless, -0.5 to 0.5)); higher = stronger relative binding preference; most listed sequences are background and not binding sites
# In short: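 Full-length P. aeruginosa MvaT carrying an N-terminal glutathione S-transferase tag was tested by protein binding microarray following a previously described protocol. Two universal double-stranded 60-mer arrays, ME and HK, were used, each with a constant 25-mer primer region and a variable 35-mer region covering all 8-mers. The rank-based E-score is the mean of the two arrays, parsed with a custom script. Its range runs from -0.5 to 0.5 for each 8-mer.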
row,Sequence,PBM 8-mer E-score
1,CGCGTTTC,0.0432
2,AGCGGTGC,-0.243
3,GATATTAC,0.293
4,AGGTGTAG,-0.0839
5,CATGCAGA,-0.0592
6,AATCGTAT,0.0883
7,CTAGGCTA,-0.149
8,AGCGGCAC,-0.0827
9,AAATATTC,0.363
10,GGGTAACC,-0.246
11,CGAGTAAA,0.0642
12,GTCTGGGA,-0.0677
13,AAATAGAA,0.31
14,CCCTTGGC,-0.27
15,CATCCCTA,-0.147
16,CCTACTGC,-0.194
17,GTCTACAC,-0.00201
18,ACCGGAAG,-0.217
19,AGAGCTAT,0.0206
20,AATATCCG,0.223
21,GTCAGTAA,-0.0177
22,AACTAACA,0.292
23,CGAGCGAC,-0.19
24,AAGCATCT,-0.142
25,AGTAACCA,0.169

row,Sequence,PBM 8-mer E-score
1,AACCACTC,0.00691
2,ACAATTGT,0.0806
3,ACCTATGA,-0.207
4,CCCTATCA,-0.0873
5,AACTTTTC,0.277
6,AGGGCCGG,-0.262
7,AACTGGGC,-0.00796
8,AAGTAGGG,0.129
9,CAACCTAC,-0.0561
10,AACATCCC,2.53e-05
11,GGGACGCA,-0.117
12,AATTGACC,0.0124
13,CGCACTAG,-0.119
14,CTATCCCC,-0.0545
15,CAGTATTA,0.289
16,ACGAGAAT,-0.0739
17,AAACTGCA,0.0716
18,CGCTCTAG,-0.234
19,CAGGACGA,-0.15
20,AGGTTCCC,-0.281
21,ACAGAATA,0.151
22,GAATACAC,0.0136
23,GCTGTTCA,-0.192
24,AGGTTACA,0.103
25,GCAAGTGA,-0.158

row,Sequence,PBM 8-mer E-score
1,TAGGACAA,0.0864
2,GCCACCTA,-0.169
3,AATCCAAA,0.11
4,CCCGTGGC,-0.26
5,AATTCACG,0.156
6,CATGGGCA,-0.125
7,GTGCAGCA,-0.0501
8,GTACCCCA,-0.136
9,CTACGTCC,-0.0884
10,ACAGGGCT,-0.196
11,GGGCTTAC,-0.2
12,AAGGTGTG,-0.0805
13,CCCCTCAA,-0.277
14,ACGTAGCC,-0.145
15,ATTTAAGA,0.239
16,ACATTACC,0.113
17,ATTAGCCA,0.137
18,ACAGGAAA,0.0933
19,ACCTCGAA,0.00765
20,ACATGATA,0.253
21,CCGGGGAC,-0.288
22,GTCTATCA,-0.0338
23,CCGAACTC,-0.0908
24,AGTGCAGG,-0.183
25,GGCTGTCA,-0.28

row,Sequence,PBM 8-mer E-score
1,ACAGGGAG,-0.284
2,AGCGGAAA,-0.0159
3,ACTCTCAT,0.165
4,CCATGTAA,0.171
5,AGATACCA,-0.00766
6,TAAGGCAA,0.2
7,ATACCTTA,0.217
8,AGTCATTG,0.0326
9,CCACGGCA,-0.0512
10,TCAGGCCA,-0.254
11,AGTGTTAG,0.0623
12,AGAGATTA,0.102
13,CATAGGAG,0.0253
14,ACTAACCA,0.00276
15,GCGCCTAA,-0.067
16,ACCCGACG,-0.308
17,AAATCCTA,0.0983
18,AGAACCGG,-0.0968
19,ACGCCTCC,-0.266
20,ATCCCCAG,-0.243
21,CACCGAAA,-0.0393
22,CTCACAGC,-0.0646
23,ACCAATTG,0.18
24,ATCTGCGG,-0.304
25,ATCTGAAT,0.181

row,Sequence,PBM 8-mer E-score
1,CCCGGCGC,-0.295
2,CCGTTGCC,-0.127
3,AGGGGGAG,-0.246
4,AGCCGTTG,-0.178
5,ACTGAAGA,-0.0905
6,AAGATGTC,0.0644
7,AATCGTGT,0.0667
8,AAGTTTGA,0.289
9,CACGAGCC,-0.157
10,ACGTCCGA,-0.131
11,AGTCTTAC,0.0995
12,AGCTTGCA,-0.201
13,AACTCGGA,-0.204
14,AGACGTCA,-0.0631
15,CTTTCCAA,-0.0652
16,AAGCACAT,0.0617
17,CGTATTCC,0.0945
18,GCAGACCC,-0.196
19,CATGGTGG,-0.18
20,GATCCGAC,-0.229
21,ACTCGGCT,-0.142
22,CGGCAGCC,-0.227
23,AATCTTAC,0.084
24,AGTCCATA,-0.0417
25,CTTGCGGC,-0.183

row,Sequence,PBM 8-mer E-score
1,CTCCAGGC,-0.291
2,ATGCGACA,0.0362
3,ACACCCTC,-0.052
4,GGCCGGCC,-0.209
5,GCGAACGA,-0.161
6,CTTCTGCA,0.0154
7,AATCCCGG,-0.128
8,GGCAGCAA,-0.109
9,ACAATTTA,0.353
10,GAATCTGA,-0.0293
11,TCACACAA,0.054
12,AACGCACG,-0.152
13,TTAAAAAA,0.305
14,GTAGCATA,0.0752
15,GTAAGGAA,0.00351
16,CGAGCGAG,-0.153
17,ATTATTCG,0.378
18,ACCCCGTG,-0.237
19,CGTAATAC,0.208
20,CCGCTGGA,-0.269
21,CAGGGGCA,-0.373
22,CTCCTTCA,-0.306
23,AGGGATAT,0.0422
24,AGTTTGTG,0.223
25,CTCATGAA,-0.0445

row,Sequence,PBM 8-mer E-score
1,ATAAACAA,0.327
2,AATTTGCA,0.0865
3,GCGTAACA,0.0692
4,GTCAAACA,0.123
5,CCCATGGC,-0.275
6,GTCCCGTA,-0.123
7,ATCCACGG,-0.105
8,CCGTATCC,-0.0843
9,CATGTGCC,-0.113
10,AATTTAAC,0.31
11,CACACTAC,0.197
12,CACGCTGG,-0.201
13,CAAGTACA,0.18
14,CTGACTTC,-0.174
15,GGCCCCAC,-0.197
16,AAAGTTTC,0.296
17,GAGTCGCA,-0.259
18,CAGGTGAG,-0.208
19,GGCAATGA,-0.0455
20,AACGGGCT,0.0442
21,GGTGATTA,0.0569
22,ACCCTCCA,-0.23
23,AATCGGCC,-0.0943
24,CCGATCCA,-0.176
25,AGCAACCG,-0.127

row,Sequence,PBM 8-mer E-score
1,CATCAGGG,-0.209
2,CTAGTTAC,0.212
3,AACTTGCG,0.232
4,ATCAGACA,0.0445
5,AGGTTGAC,-0.0422
6,AAGGATTA,0.00301
7,GTACATTA,0.308
8,ATCCTCAT,-0.201
9,AGGCAGTC,-0.165
10,GGTCCGCA,-0.0756
11,ACCTGCAT,0.0636
12,CTAATAAG,0.213
13,CTCAATTA,0.234
14,CGACACGA,-0.0857
15,AACGAAGC,-0.0882
16,CCTTCTCC,-0.268
17,CCAACGTC,-0.138
18,CGCATACC,-0.0906
19,AAGGCATG,-0.0865
20,AGGCGTAA,-0.205
21,AAACCTGT,-0.034
22,ACTAGCAT,-0.0487
23,ACATATTC,0.281
24,CAGACGGA,-0.156
25,AGAAGCCT,-0.176

row,Sequence,PBM 8-mer E-score
1,AGGCTGGC,-0.331
2,CGGTAGAG,-0.0757
3,CGGCCCGC,-0.294
4,AAACAACG,0.157
5,AGGCCTTG,-0.183
6,GTGGATAA,0.103
7,GAGGTCGA,-0.159
8,CGTTCTAA,0.059
9,AAGATGGG,0.125
10,CAACCACC,-0.0994
11,GGCTCCCA,-0.209
12,ATTGCCGC,-0.0616
13,ATGGAGGG,-0.32
14,GCCGTCGA,-0.229
15,TCACCCAA,0.0991
16,ACCTGAAC,-0.147
17,GCTGATCC,-0.223
18,AGTCCATG,-0.157
19,CGGTACAA,0.0563
